Assay results from paper PMC6919601, “Identification of Plasmodium dipeptidyl aminopeptidase allosteric inhibitors by high throughput screening” (PLoS ONE, 2019).
In all, about 110,000 compounds went through this assay and about 230 (0.21%) showed an effect of 50% or more. The list shows a part of the results.

Biological target: DPAP1 (Plasmodium falciparum, UniProt Q8IIJ9)
Experiment: primary screen, percent inhibition; read by cleavage of a fluorogenic dipeptide substrate; higher = more effect of the substance
Parameters: species or system P. falciparum D10 trophozoite lysates; single well
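Further: 30 min substrate incubation versus DMSO and 10 µM JCP410 controls.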

Chain of DPAP1 (Q8IIJ9 whole entry, looked up): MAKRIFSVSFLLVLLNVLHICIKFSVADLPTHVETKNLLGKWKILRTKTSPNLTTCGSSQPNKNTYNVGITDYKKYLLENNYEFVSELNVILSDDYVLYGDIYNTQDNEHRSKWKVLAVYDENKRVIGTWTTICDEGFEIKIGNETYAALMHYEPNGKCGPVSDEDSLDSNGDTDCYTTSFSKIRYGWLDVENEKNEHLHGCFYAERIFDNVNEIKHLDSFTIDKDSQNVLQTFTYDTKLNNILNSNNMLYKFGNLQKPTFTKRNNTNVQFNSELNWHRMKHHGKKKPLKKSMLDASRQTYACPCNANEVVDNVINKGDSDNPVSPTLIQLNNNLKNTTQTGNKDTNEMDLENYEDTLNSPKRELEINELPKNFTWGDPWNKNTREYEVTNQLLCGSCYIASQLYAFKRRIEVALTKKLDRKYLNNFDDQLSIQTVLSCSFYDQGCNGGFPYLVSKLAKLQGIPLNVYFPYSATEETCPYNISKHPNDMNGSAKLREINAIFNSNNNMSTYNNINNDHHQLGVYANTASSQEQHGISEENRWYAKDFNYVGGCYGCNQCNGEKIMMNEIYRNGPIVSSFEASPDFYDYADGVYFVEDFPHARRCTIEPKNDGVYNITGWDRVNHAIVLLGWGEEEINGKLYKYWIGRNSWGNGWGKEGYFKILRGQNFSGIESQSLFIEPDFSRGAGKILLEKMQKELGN

Structure (SMILES)	% Inhibition @ 10 uM [%]
CCOc1ccccc1C(=O)NCCCn1ccnc1	0.331
O=C(C1=C(OC(=O)c2ccco2)c2ccccc2S(=O)(=O)N1Cc1ccccc1)c1ccccc1	-2.71
CCOC(=O)c1[nH]c2ccccc2c1NC(=O)CCc1ccccc1	-0.58
Clc1ccccc1OCCCCCN1CCOCC1	-2.12
COc1cccc(NC(=O)COc2ccc(S(=O)(=O)NC3CCCCC3)cc2)c1	1.49
COc1cccc(/C=C2\N=C(c3ccc(C)cc3)OC2=O)c1OC	3.96
CCC1(OC(=O)c2ccccc2)CC(C)N(C)CC1C (stereo not shown)	-3.65
CCn1ncc(C2=NOC(C(=O)Nc3cccnc3)C2)c1C (stereo not shown)	-4.85
O=C(NCc1ccco1)C12CC3CC(CC(C3)C1)C2	-5.38
CCOCCn1c(C)c(C(C)=O)c2cc(O)ccc21	-3.76
CN(C)c1ccc(/C=C(\C#N)c2nc(-c3ccc(Br)cc3)cs2)cc1	4.33
Cc1cc(O)n2nc(COc3ccccc3)nc2n1	-0.671
C=C(C)Cn1c(SC(C)C)nc2c1c(=O)[nH]c(=O)n2C	0.317
Cc1c(Cl)cccc1N(CC(=O)NC1CC2CCC1C2)S(C)(=O)=O (stereo not shown)	0.235
O=C(O)c1ccc(CNCCC2=CCCCC2)s1	-6.24
Cc1c(Cl)cccc1NC(=O)/C=C/c1ccccc1	3.16
O=C(O)c1ccccc1N1C(=O)C2C3c4ccccc4C(c4ccccc43)C2C1=O (stereo not shown)	1.9
Cc1ccc(CN(Cc2ccco2)C(=S)NCC(=O)NCc2ccc3c(c2)OCO3)cc1	-0.406
CCC(CO)Nc1nc2c(c(=O)n(C)c(=O)n2C)n1C (stereo not shown)	3.79
CC(C)(C)NC(=O)CSCc1cnn(-c2ccccc2)c1-n1cccc1	2.27
CC(=O)N1N=C(c2ccc(Cl)cc2Cl)CC1c1ccccc1 (stereo not shown)	-5.92
CC(NCc1ccc(F)cc1)c1ccccc1 (stereo not shown)	3.99
Cc1sc2c(c1C)c(=O)n(Cc1ccccc1)c(=O)n2CC(=O)NC1CCCC1	7.9
COc1ccc(CC(=O)N2CCN(c3ccc([N+](=O)[O-])cc3)CC2)cc1	-0.261
COc1ccc(C(=O)/C=C/c2ccco2)c(OC)c1	-2.28
COc1ccc(/C(O)=C/C=N/c2ccc3c(c2)OCO3)cc1	-4.12

Structure (SMILES)	% Inhibition @ 10 uM [%]
Cc1c(Cl)cccc1-c1ccc(C(=O)O)o1	9.01
Cc1nc2cc(S(=O)(=O)N3CCC(C(=O)NC(C)c4ccccc4)CC3)ccc2n1C1CCCC1 (stereo not shown)	-0.0309
CC(C)C(C#CC(O)(c1ccccc1)c1ccccc1)N(C)C (stereo not shown)	1.24
c1ccc(CN2CCN(c3ccccc3)CC2)cc1	3.16
CCCCOC(=O)NC(C(F)(F)F)C(F)(F)F	-3.14
Brc1ccc(OCCn2cnc3ccccc32)cc1	0.162
O=S(=O)(Nc1ncccn1)c1ccccc1	-3.48
CN(C)CC(=O)Nc1c2c(nc3ccccc13)CCC2	7.92
c1ccc(-c2nnc(Cc3nnc(-c4ccccc4)o3)o2)cc1	-4.43
O=C(O)C1C2CC3C1C(=O)Oc1ccccc1C1c4sc(O)nc4SC2C13 (stereo not shown)	2.95
CCOc1ccc(CC(=O)NC2CCCCC2)cc1OCC	0.145
CN(CC(=O)O)S(=O)(=O)c1cccs1	-0.458
Cc1ccc2oc(-c3cc(N)ccc3Cl)nc2c1	-0.712
COc1ccc(OC)c(CNC(=O)CN2C(=O)CSc3c2c(C)nn3-c2ccccc2)c1	9.03
Cc1ccc(OC(C)c2nc(-c3nonc3N)no2)cc1C (stereo not shown)	-1.06
CCNC(=O)c1cc2c(=O)n3cc(C)ccc3nc2n(CC2CCCO2)c1=N (stereo not shown)	-3.27
COc1ccc(-c2nc3cc(C)ccc3[nH]2)cc1OC	-2.28
CCOC(=O)c1cccc(Oc2nc(C)nc3sc4c(c23)CCCC4)c1	0.147
CCSc1ncc(S(=O)(=O)c2ccccc2)c(N)n1	5.62
Cc1ccc(S(=O)(=O)N(C)CC(=O)NCCO)cc1	-1.6
CCOC(=O)C1=c2s/c(=C/c3ccncc3)c(=O)n2C(N)=C(C#N)C1c1ccncc1 (stereo not shown)	4.75
CCCCSCCCNC(=O)C1CCC(CNS(=O)(=O)c2ccc(Cl)cc2)CC1 (stereo not shown)	-6.4
O=C(NCCC1=CCCCC1)C1CCCN(S(=O)(=O)c2cccs2)C1 (stereo not shown)	5.74
CCOC(=O)c1c(C)n(CCc2ccccc2)c2ccc(O)cc12	-3.37
COc1ccc(CN2CCN(c3ccccn3)CC2)cc1Br	4.81
CC1(C)C(=O)N(CN2CCOCC2)C(=O)N1CN1CCOCC1	19.2
